About 260 (0.063%) of roughly 410,000 compounds were called active. Inconclusive means that the source gave no clear call. Such entries were picked first, then a sample of the others. Calls come from the whole dose curve; as a rule, active = well fitted activation curve with a large enough effect; inconclusive = small, poorly fitted or top-dose-only effect; inactive = no such curve, though single readings can be large or run the other way. Potencies of inconclusive entries are left out as doubtful fits.
assay: qHTS for compounds that reverse cellular toxicity of Amyloid beta (A-beta) peptide in yeast: Primary Screen; conditions: yeast expressing A-beta42, growth rescue, OD600, 48 h; growth rescue: at 46.1 µM (top of the series), 0% DMSO, 100% iron-clioquinol control; note: nearly all actives have a fitted effect of over 55% in size
How it was run: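 Yeast A-beta toxicity model in growth medium with pinned compounds, 48 h at 30 C; growth read as absorbance at 600 nm. Normalized to FeCl3/clioquinol equimolar mix (positive) and DMSO (negative).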
Potency is the fitted concentration of half-maximal effect; tags give direction and shape of the fitted curve.

| Structure (SMILES) | Potency |
| --- | --- |
| CC(=O)c1ccc(C(=O)Nc2nnc(-c3ccc(Cl)cc3)o2)cc1 | active: 6.31 µM |
| Cc1ccc(NC(=S)NCc2ccc(Cl)cc2)c(C)c1 | inconclusive [activator, full curve] |
| CCOc1ccccc1N(CC(=O)Nc1cc(OC)ccc1OC)S(=O)(=O)c1ccccc1 | inconclusive [activator, full curve, poor fit] |
| Cc1ccccc1-c1cc2nc(NCc3ccc(N(C)C)cc3)n(C)c(=O)c2s1 | inconclusive [activator, partial curve, poor fit] |
| COc1cc(/C=N/NC(=O)c2nnn(-c3nonc3N)c2C(C)C)ccc1OCc1ccc(F)cc1 | inconclusive [activator, single point] |
| O=C(O)Cc1sc(Nc2ccccc2)nc1-c1cccs1 | inactive |
| Cc1ccc2ccc(C(Nc3ccccc3)c3ccc(Cl)cc3)c(O)c2n1 (centres undefined) | active: 15.8 µM |
| O=S(=O)(c1ccc2ccccc2c1)N1C=CC(C(F)(F)F)=NCC1 | inconclusive [activator, partial curve, poor fit] |
| Cc1ccccc1NC(=S)NC(C)CCc1ccccc1 (centres undefined) | inconclusive [activator, partial curve] |
| CCN(CC)c1ccc(C(=O)OCc2c(C)noc2C)cc1 | inconclusive [activator, partial curve, poor fit] |
| Cc1oc(-c2ccc(Cl)cc2)nc1CN1CCC(C(=O)NCCCN2CCOCC2)CC1 | inactive |
| O=C(NC(=S)N1CCN(Cc2ccc3c(c2)OCO3)CC1)c1cccc(Br)c1 | inconclusive [activator, partial curve, poor fit] |
| CCCc1nc2sc(C(=O)OCC)c(N)c2c2c1COC(C)(C)C2 | inconclusive [activator, partial curve, poor fit] |
| CCN1CCN(C(=O)Cn2c(-c3cccs3)cc3cc(Cl)ccc32)CC1 | inactive |
| Cc1ccc(NC(=S)NCc2ccc(Cl)cc2)c(OC(F)F)c1 | inactive |
| O=S(=O)([O-])C/C(=C\c1ccc(Cl)cc1)c1cc[n+](CCO)cc1 | inconclusive [activator, single point] |
| CC(C)NC(=O)NC(=O)COC(=O)c1ccccc1Oc1ccccc1 | inconclusive [activator, partial curve, poor fit] |
| CCN(CC)C(=O)c1sc(NC(=O)c2ccoc2C)c(C(=O)OC)c1C | inconclusive [activator, partial curve, poor fit] |
| COc1ccc(Cc2c(-c3ccccc3)nc3c4ccccc4ccn23)c(C)c1 | inactive |
| COc1ccc(Cl)cc1-c1n[nH]c(=S)n1Cc1ccccc1 | inconclusive [activator, single point] |
| COc1ccc(NC(=O)CN(C)C(=O)C(C)Oc2ccc(Br)cc2)cc1 (centres undefined) | inconclusive [activator, partial curve, poor fit] |
| Cc1ccc(/C(=N\O)c2oc3c(C)c4oc(=O)cc(C)c4cc3c2C)cc1 | inactive |

| Structure (SMILES) | Potency |
| --- | --- |
| COc1cc(OC)c(NC(=O)c2sc3nc4n(c(=O)c3c2C)CCCC4)cc1Cl | inactive |
| COc1ccc(C(C)(O)c2nc(-c3cccc(F)c3)cs2)cc1 (centres undefined) | inconclusive [activator, single point] |
| Cc1cc(OC(F)F)ccc1NC(=S)NC1CCCC1 | active: 12.6 µM |
| COc1cccc(C2CC(c3c(F)cccc3Cl)n3nc(N)nc3N2)c1 (centres undefined) | inconclusive [activator, single point] |
| Cc1occc1-c1nnc(SCC(=O)NC2CCCCC2)o1 | inconclusive [activator, single point] |
| CC1CCCCC1NC(=O)CN1C(=O)NC(Cc2ccccc2)(Cc2ccccc2)C1=O (centres undefined) | inconclusive [activator, full curve] |
| Nc1nc(SCC(=O)Nc2cc(-c3ccccc3)nn2-c2ccccc2)n[nH]1 | inactive |
| CCOc1ccc(CCNC(=O)C(CC)n2nc(C)c3c(C)n(-c4ccccc4)nc3c2=O)cc1 (centres undefined) | inactive |
| O=[N+]([O-])c1ncccc1OCc1ccccc1Br | inactive |
| CCOc1ccc2nc(NC(=O)C3CCCN(S(=O)(=O)c4cccs4)C3)sc2c1 (centres undefined) | inconclusive [activator, partial curve] |
| O=C(O)C1CC=CCC1C(=O)c1ccccc1 (centres undefined) | inconclusive [activator, partial curve, poor fit] |
| CCc1cc(C(c2ccc(OC)c(OC)c2)N2CCOCC2)c(NC(=O)c2ccccc2)s1 (centres undefined) | inconclusive [activator, partial curve, poor fit] |
| CC(C)(C)c1ccc(/C=N/NC(=S)NC2CCCCC2)cc1 | inconclusive [activator, partial curve, poor fit] |
| O=C(Nc1ccccc1Cl)c1ccc(F)c(S(=O)(=O)NCc2ccc(Cl)c(Cl)c2)c1 | inconclusive [activator, single point] |
| CC(=O)Nc1ccc(NC(=O)CCc2c(C)nc3c(c(C)nn3-c3ccc(C)cc3)c2C)cc1 | inactive |
| Cn1c(=O)c(-c2ccccc2)c(O)c2ccccc21 | inactive |
| Cc1sc2nc(CN3CCOCC3)[nH]c(=S)c2c1C | inconclusive [activator, full curve, poor fit] |
| CC1(C)Cc2c(sc3ncnc(NN)c23)CO1 | inconclusive [activator, single point] |
| Cc1onc(-c2ccccc2)c1C(=O)NC(=S)NNC(=O)c1ccc(O)cc1 | inconclusive [activator, single point] |
| COc1ccc2cc(C(=O)C3CCCN(C(=O)/C=C/c4ccccn4)C3)ccc2c1 (centres undefined) | inconclusive [activator, single point] |
| Cc1nn(C(=O)CCC(=O)NCc2ccccc2Cl)c2ccccc12 | inconclusive [activator, single point] |
| O=C(Nc1ccc2oc(-c3cccc4ccccc34)nc2c1)c1ncn[nH]1 | inactive |
